The other results are listed elsewhere or left out.

Sequences and labels used below:
B1: PhoQ; a variant is named by its letters at X, in order, P23837 (parent)
chain: MKKLLRLFFPLSLRVRFLLATAAVVLVLSLAYGMVALIGYSVSFDKTTFRLLRGESNLFYTLAKWENNKLHVELPENIDKQSPTMTLIYDENGQLLWAQRDVPWLMKMIQPDWLKSNGFHEIEADVNDTSLLLSGDHSIQQQLQEVREDDDDAEMTHSVAVNVYPATSRMPKLTIVVVDTIPVELKSSYMVWSWFIYVLSANLLLVIPLLWVAAWWSLRPIEALAKEVRELEEHNRELLNPATTRELTSLVRNLNRLLKSERERYDKYRTTLTDLTHSLKTPLXXLQXXLRSLRSEKMSVSDAEPVMLEQISRISQQIGYYLHRASMRGGTLLSRELHPVAPLLDNLTSALNKVYQRKGVNISLDISPEISFVGEQNDFVEVMGNVLDNACKYCLEFVEISARQTDEHLYIVVEDDGPGIPLSKREVIFDRGQRVDTLRPGQGVGLAVAREITEQYEGKIVAGESMLGGARMEVIFGRQHSAPKDE

In the assay the parent is B1. The assay is described as follows: enrichment ratio after two sorts for PhoP signalling (ratio (wild type AVST 3.29)); higher = more functional. Conditions: with PhoP (E. coli).
Turning to KGHD, the enrichment ratio was at most 0.25.

Consider LWRV, for which the enrichment ratio is at most 0.25.

As to YWPN, the enrichment ratio was at most 0.25.

For the variant PTMQ, the enrichment ratio is at most 0.25.

RKLN: the enrichment ratio is at most 0.25.

With ISCD, the enrichment ratio is at most 0.25.

With GQAY, the enrichment ratio was at most 0.25.

As to SSWR, the enrichment ratio was at most 0.25.

Regarding SMAV, the enrichment ratio was determined as 5.92.

With AGDL, the enrichment ratio was at most 0.25.

For TNWF, the enrichment ratio is 1.29.

For IEVL, the enrichment ratio is at most 0.25.

In the case of YEVN, the enrichment ratio is at most 0.25.

For SSKR, the enrichment ratio was at most 0.25.

Regarding TPIY, the enrichment ratio is at most 0.25.

With EALG, the enrichment ratio is at most 0.25.

Consider WVQP, for which the enrichment ratio was at most 0.25.

With WLWW, the enrichment ratio is at most 0.25.

With IATY, the enrichment ratio is at most 0.25.

On to PVDY, for which the enrichment ratio was at most 0.25.

As for DIGS, the enrichment ratio was at most 0.25.

On to FDRV, for which the enrichment ratio is at most 0.25.

Take KLDR: the enrichment ratio was at most 0.25.

As to ELMF, the enrichment ratio is at most 0.25.

Turning to NYQC, the enrichment ratio was at most 0.25.

In the case of PPCT, the enrichment ratio is at most 0.25.

As to QRLI, the enrichment ratio was at most 0.25.

Regarding FQLV, the enrichment ratio was found to be 2.7.

On to QLMK, for which the enrichment ratio is at most 0.25.

With RSSQ, the enrichment ratio is at most 0.25.

Turning to PCNP, the enrichment ratio was at most 0.25.

Take EELP: the enrichment ratio is at most 0.25.

As to GYLA, the enrichment ratio was at most 0.25.

Turning to VWLG, the enrichment ratio is at most 0.25.

For the variant FVAD, the enrichment ratio is at most 0.25.

As for FLPE, the enrichment ratio is at most 0.25.

With ALKF, the enrichment ratio is at most 0.25.

Consider TYGN, for which the enrichment ratio is at most 0.25.

Turning to MQSK, the enrichment ratio was at most 0.25.

As for VAVV, the enrichment ratio is at most 0.25.

As to FNVK, the enrichment ratio was at most 0.25.

As to WHHV, the enrichment ratio was at most 0.25.

As to DPWQ, the enrichment ratio is at most 0.25.

For the variant WGTW, the enrichment ratio was at most 0.25.

With TASY, the enrichment ratio is 10.9.

With VRWK, the enrichment ratio is at most 0.25.

With TDMK, the enrichment ratio amounted to 11.7.

As to SLIR, the enrichment ratio is at most 0.25.

As to HKMG, the enrichment ratio was at most 0.25.

RIAN: the enrichment ratio was at most 0.25.

As to VQRI, the enrichment ratio was at most 0.25.

In the case of AQRP, the enrichment ratio is at most 0.25.

Regarding FCTV, the enrichment ratio is at most 0.25.

In the case of FDGP, the enrichment ratio is at most 0.25.

Turning to APND, the enrichment ratio is at most 0.25.

Regarding NIIA, the enrichment ratio was at most 0.25.

Consider SAVH, for which the enrichment ratio amounted to 7.41.

Consider AICF, for which the enrichment ratio is 13.5.

On to LLRF, for which the enrichment ratio was at most 0.25.

Turning to QSTW, the enrichment ratio is at most 0.25.

On to IFVP, for which the enrichment ratio is at most 0.25.

On to VFET, for which the enrichment ratio was at most 0.25.

For the variant MVWG, the enrichment ratio is at most 0.25.

Take KKMP: the enrichment ratio is at most 0.25.

With MRDH, the enrichment ratio is at most 0.25.

On to PMGF, for which the enrichment ratio is at most 0.25.

On to VDPR, for which the enrichment ratio was 0.945.

For the variant KMYG, the enrichment ratio is at most 0.25.

On to MYFE, for which the enrichment ratio is at most 0.25.

On to RIGE, for which the enrichment ratio was at most 0.25.

For the variant GKLD, the enrichment ratio was at most 0.25.

With STWG, the enrichment ratio is at most 0.25.

Consider NHKK, for which the enrichment ratio was at most 0.25.

With FGGM, the enrichment ratio is at most 0.25.

As for HTLF, the enrichment ratio was determined as 3.27.

As for GFKD, the enrichment ratio is at most 0.25.

For FPAW, the enrichment ratio is at most 0.25.

Turning to YTYC, the enrichment ratio was at most 0.25.

With ETKR, the enrichment ratio was at most 0.25.

As for YNPQ, the enrichment ratio was at most 0.25.

Turning to NITT, the enrichment ratio is at most 0.25.

As to LIDV, the enrichment ratio is at most 0.25.

On to GGNM, for which the enrichment ratio was at most 0.25.

Regarding IFSP, the enrichment ratio was at most 0.25.

For EAMG, the enrichment ratio is at most 0.25.

In the case of DDVA, the enrichment ratio was at most 0.25.

Turning to FDRI, the enrichment ratio was at most 0.25.

Regarding MCFK, the enrichment ratio was determined as 8.62.

Consider NNSH, for which the enrichment ratio was at most 0.25.

GGKR: the enrichment ratio was at most 0.25.

With LYQH, the enrichment ratio is at most 0.25.

Take TCWW: the enrichment ratio is at most 0.25.

For the variant HHQD, the enrichment ratio was at most 0.25.

On to WYHA, for which the enrichment ratio is at most 0.25.

For WVYQ, the enrichment ratio was at most 0.25.

As to YWDI, the enrichment ratio is at most 0.25.

Turning to AHDF, the enrichment ratio was at most 0.25.

Regarding IESD, the enrichment ratio is at most 0.25.

In the case of MTQG, the enrichment ratio was at most 0.25.

For the variant KRPL, the enrichment ratio was at most 0.25.

Regarding EDCI, the enrichment ratio is at most 0.25.

Take TCFE: the enrichment ratio is at most 0.25.

FMLL: the enrichment ratio was at most 0.25.

Regarding GDNA, the enrichment ratio is at most 0.25.

For the variant MKKP, the enrichment ratio was at most 0.25.

On to MHRG, for which the enrichment ratio is at most 0.25.

For RMPC, the enrichment ratio is at most 0.25.

As to EGAS, the enrichment ratio was at most 0.25.

IVCM: the enrichment ratio was 6.4.

For FYWK, the enrichment ratio is at most 0.25.

Regarding KTTF, the enrichment ratio is at most 0.25.

Take LTKC: the enrichment ratio is at most 0.25.

In the case of NGYR, the enrichment ratio is at most 0.25.

With HEAC, the enrichment ratio is at most 0.25.

In the case of TPTL, the enrichment ratio was at most 0.25.

In the case of NWEP, the enrichment ratio was at most 0.25.

For TWLH, the enrichment ratio is at most 0.25.

Regarding WSMS, the enrichment ratio is at most 0.25.

As for MTTP, the enrichment ratio was at most 0.25.

With AKYI, the enrichment ratio is at most 0.25.

In the case of YMKS, the enrichment ratio was at most 0.25.

Turning to EGLN, the enrichment ratio is at most 0.25.

Turning to KCCD, the enrichment ratio was at most 0.25.

For the variant VTAP, the enrichment ratio was at most 0.25.

Turning to WSIY, the enrichment ratio was at most 0.25.

In the case of RIIV, the enrichment ratio was at most 0.25.

Take EIMS: the enrichment ratio was at most 0.25.

On to LSSW, for which the enrichment ratio is at most 0.25.

Consider FCHQ, for which the enrichment ratio was at most 0.25.

For MHSN, the enrichment ratio was at most 0.25.

As to TLDV, the enrichment ratio was at most 0.25.

For the variant IQRM, the enrichment ratio is at most 0.25.

For the variant HMIS, the enrichment ratio was at most 0.25.

With TSIV, the enrichment ratio came to 1.78.

Regarding TNAV, the enrichment ratio turned out to be 27.6.

Take VLFY: the enrichment ratio was at most 0.25.

For ADLI, the enrichment ratio was 16.8.

With QYMI, the enrichment ratio is at most 0.25.

For the variant AWTC, the enrichment ratio is at most 0.25.

Consider NDKV, for which the enrichment ratio was at most 0.25.

As to FIRF, the enrichment ratio is at most 0.25.

Regarding HYKI, the enrichment ratio is at most 0.25.

HQIN: the enrichment ratio was at most 0.25.

Regarding PGDC, the enrichment ratio was at most 0.25.

As for YCRA, the enrichment ratio was at most 0.25.

For the variant DCHR, the enrichment ratio is at most 0.25.

Regarding SYKA, the enrichment ratio was at most 0.25.

In the case of HQYH, the enrichment ratio is at most 0.25.

For the variant TAFT, the enrichment ratio is at most 0.25.

As to ERMS, the enrichment ratio is at most 0.25.

Consider DYQC, for which the enrichment ratio was at most 0.25.

Turning to GQDS, the enrichment ratio was at most 0.25.

As for QKAP, the enrichment ratio is at most 0.25.

For the origin of these results see a collection of fitness landscapes (doi:10.1126/science.1257360).
